The assay deals with importin β (Impβ) (human, UniProt Q14974). Nature of the assay: pull-down.

B1: His-tagged H1.0 globular domain (H1g, aas […]) (domain or fragment)
chain: not shown
Regarding B1, the binding result is on record as “binds”.

Values taken from publication PMC6436938 (Molecular Cell, 2019).
